“And” between values parts separate entries of the source, which are not always exact repeats. Equal entries are not always repeated. In all, about 420,000 compounds went through this assay and about 50,000 (12%) were called active. The shares of active, inactive and inconclusive entries below differ from those in the screen. Calls follow the shape of the dose curve; as a rule, active = well fitted inhibition curve with a large enough effect; inconclusive = small, poorly fitted or top-dose-only effect; inactive = flat fitted curve, though single readings scatter. Potencies of inconclusive entries are doubtful fits and often do not repeat.
Test: qHTS for Inhibitors of human tyrosyl-DNA phosphodiesterase 1 (TDP1): qHTS in cells in presence of CPT; also: nearly all actives have a fitted effect of over 55% in size
Settings: chicken DT40 Tdp1-/-;hTDP1 cells + 20 nM CPT, ATP luminescence, 48 h; activity change, negative = growth inhibition: at 46.2 µM (top of the series) unless noted
How it was run: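 Chicken DT40 Tdp1-/- cells complemented with human TDP1, 400 cells/well, exposed to compounds plus 20 nM camptothecin for at least 48 h at 37 C; viability read as ATP content by CellTiter-Glo luminescence.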
% is scaled to controls: 0 for no effect and ±100 for the full control effect; potency is read from the fitted curve at half-maximal effect; tags tell the direction and shape of the fitted curve.

Row | Structure (SMILES) | Potency | activity change, negative = growth inhibition
1 | O=C1CN(C(=O)c2c(F)cccc2F)C(c2ccc(F)cc2)c2cc(Br)ccc2N1 (stereo unspecified) | inconclusive: 29.1 µM [inhibitor, single point] | 
2 | O=C(O)/C(=C\c1cn(-c2ccccc2)nc1-c1ccc(Cl)cc1)NC(=O)c1ccccc1 | inactive | 
3 | O=C(NC(O)C(=O)c1ccccc1)c1cccs1 (stereo unspecified) | inconclusive: 23.1 µM [inhibitor, single point] | 
4 | CCc1ccccc1NC(=O)c1cc(S(=O)(=O)NCCc2ccc(OC)c(OC)c2)ccc1F | active: 20.6 µM | 
5 | CC(=O)NC(c1ccc(N(C)C)cc1)c1cc(Cl)c2cccnc2c1O (stereo unspecified) | active: 4.61 µM | 
6 | Cc1cc2nc3ccc(=[N+](C)C)cc-3sc2cc1N | active: 531 nM and active: 1.16 µM | 
7 | CCCn1c(C(O)c2cc(OC)ccc2OC)nc2ccccc21 (stereo unspecified) | inactive | 
8 | Cn1sc2ccccc2c1=O | active: 2.31 µM | 
9 | O=C(NCCC1CCCCN1S(=O)(=O)c1ccccc1)C(=O)NC1CCCC1 (stereo unspecified) | inactive | 
10 | CCCCCCc1ccc(N2C[C@H](CCCCC)[C@@H](CC(=O)NCc3ccc(OC)cc3)C2=O)cc1 | inconclusive: 22.4 µM [inhibitor, single point] and inconclusive: 18.4 µM [inhibitor, single point] | 
11 | CCCOc1ccc(C2c3c(-c4ccccc4O)n[nH]c3C(=O)N2Cc2ccncc2)cc1OCC (stereo unspecified) | active: 23.1 µM | 
12 | Cc1cccc(NC(=O)C(=O)NCC(c2cccnc2)N2CCOCC2)c1 (stereo unspecified) | inactive | 
13 | CCc1cc(-c2nnn(CCC3COCCO3)c2CC)cc(CC)c1-c1cn(CCc2c[nH]c3ccccc23)nn1 (stereo unspecified) | inconclusive: 14.6 µM [inhibitor, partial curve] | 
14 | C=CCNC(=S)N1CCC(C(=O)c2ccc(F)cc2)CC1 | inconclusive: 29.1 µM [inhibitor, single point] | 
15 | O=c1c2ccccc2n(Cc2ccc(F)cc2)c(=O)n1C1CCCC1 | inconclusive: 29.1 µM [inhibitor, single point] | 
16 | COC(=O)c1cc(NC(=O)c2cc(-c3ccc(Cl)cc3)oc2C(F)(F)F)ccc1N1CCOCC1 | inconclusive: 29.1 µM [inhibitor, single point] | 
17 | COc1cccc(-c2nn(C)c3sc(C(=O)NCc4ccc5c(c4)OCO5)cc23)c1 | active: 13 µM | 
18 | O=C(O)[C@@H]1CSCN1 | inactive | 
19 | C=C[C@@]1(C)CC(=O)[C@]2(O)[C@@]3(C)[C@@H](O)CCC(C)(C)[C@@H]3[C@H](O)[C@H](OC(C)=O)[C@@]2(C)O1 | inactive and inconclusive: 11.9 µM [inhibitor, partial curve] | 
20 | O=C(NCc1ccccc1)c1cc(=O)[nH]c2ccccc12 | inactive | 
21 | Cc1cccn2cc(-c3ccc(NC(=O)Cc4ccccc4)cc3)nc12 | inconclusive: 20.6 µM [inhibitor, single point] | 
22 | Cc1cccc(OCCNC(=O)c2ccc(Oc3ccc(C(F)(F)F)cc3[N+](=O)[O-])cc2)c1 | inactive | 

Row | Structure (SMILES) | Potency | activity change, negative = growth inhibition
23 | COc1cccc(CN2CCCC(c3nc(-c4ccncc4)ncc3-c3ccccc3C)C2)c1O (stereo unspecified) |  | inconclusive: -38.4% [inhibitor] [at 9.04 µM]
24 | CC1=CC(C)(C)n2c(O)c(N=N)c3cc(C)cc1c32 | inconclusive: 18.4 µM [inhibitor, single point] | 
25 | COc1nc(-c2cccs2)cc(-c2ccc(C)cc2)c1C#N | active: 10 µM | 
26 | Clc1ccc(C2CSc3c4ncnc-4ncn32)cc1 (stereo unspecified) | inconclusive: 18.4 µM [inhibitor, single point] | 
27 | COC(=O)[C@@]12CCCCN1[C@H](c1ccc(SC3CCCCC3)cc1)[C@H]1C(=O)N(C)C(=O)[C@H]12 | inconclusive: 20.6 µM [inhibitor, single point] | 
28 | COc1ccc(C)cc1NC(=O)C(=O)NCCc1csc(-c2ccc(C)cc2)n1 | inconclusive: 18.4 µM [inhibitor, single point] | 
29 | O=C(NCCc1ccccc1)C(=O)NN=C1CCCC1 | inconclusive: 32.6 µM [inhibitor, single point] | 
30 | C#CCNC(=O)C1=C[C@H](c2ccc(C(F)(F)F)cc2)C[C@H](OCc2ccc(CO)cc2)O1 | inconclusive: 23.1 µM [inhibitor, single point] | 
31 | COC(=O)C1=C(C)NC(C)=C(C(=O)OC)C1c1ccc(OC(=O)c2oc3ccccc3c2C)c(OC)c1 | inconclusive: 20.6 µM [inhibitor, single point] | 
32 | COc1cccc(NC(=O)CCCCCN2C(=O)[C@@H]3Cc4ccccc4CN3C2=O)c1 |  | inconclusive: -33% [inhibitor]
33 | CCOc1ccc(CCNC(=O)CCc2nnc3ccc(N4CCCC4)nn23)cc1OCC | inconclusive: 20.6 µM [inhibitor, single point] | 
34 | CC1CCN(S(=O)(=O)c2ccc(NC(=S)NC(=O)c3ccc(Cl)cc3)cc2)CC1 |  | inconclusive: -33% [inhibitor]
35 | CCOC(=O)C=C(C(=O)OCC)C(=O)OCC | active: 4.61 µM | 
36 | COc1ccc(N2CCN(C(c3cc4cc(C)ccc4[nH]c3=O)c3nnnn3Cc3ccccc3)CC2)cc1 (stereo unspecified) | inconclusive: 29.1 µM [inhibitor, single point] | 
37 | CN(C)c1ccc(-c2nn3c(-c4cc(-c5ccccc5)n[nH]4)nnc3s2)cc1 | active: 5.01 µM | 
38 | CCc1nn(CC(=O)Nc2cccc(C)c2C)c(=O)c2cc3sccc3n12 | inactive | 
39 | Cc1cccc(CNC(=O)c2cnc3sc(N4CCCCC4)nn3c2=O)c1 | inconclusive: 8.2 µM [inhibitor, partial curve, poor fit] | 
40 | FC(F)(F)c1ccccc1Cc1c(-c2ccc(Cl)cc2)nc2ccc(Br)cn12 | inconclusive: 29.1 µM [inhibitor, single point] | 
41 | O=c1cnc2cnc(Nc3ccccc3)nc2n1Cc1ccc(F)cc1 | inconclusive: 23.1 µM [inhibitor, partial curve, poor fit] | 
42 | O=S(=O)(c1ccccc1)N1CCC2(CCCN(c3ccccc3)C2)CC1 | inactive | 
43 | O=C(NCCF)C1Nc2ccc(OC(F)(F)F)cc2C2C=CCC12 (stereo unspecified) | inconclusive: 14.6 µM [inhibitor, partial curve] | 
44 | O=C(Cc1ccc(F)cc1)N1CCC(c2nc3c(nnn3Cc3ccc(Cl)cc3)c(=O)[nH]2)CC1 | inconclusive: 25.9 µM [inhibitor, single point] | 

Row | Structure (SMILES) | Potency | activity change, negative = growth inhibition
45 | CC(Oc1ccc(C(C)(C)C)cc1)C(=O)NC1CC(C)(C)NC(C)(C)C1 (stereo unspecified) | inactive | 
46 | COc1ccc(/C=C/c2nc(C#N)c(N3CCN(c4ccccc4)CC3)o2)cc1OC | inactive | 
47 | CN(C(=O)CSc1cn(CC(=O)N2CCCCC2)c2ccccc12)c1ccccc1 | inconclusive: 29.1 µM [inhibitor, single point] | 
48 | Clc1ccccc1-c1ncnc2ccc(Br)cc12 | inconclusive: 16.4 µM [inhibitor, single point] | 
49 | O=C(N/N=C/c1cccc(O)c1)c1ccc(NC(=O)C2CCCCC2)cc1 | inconclusive: 29.1 µM [inhibitor, single point] | 
50 | CC[C@]12c3[nH]c4cc(-c5ccco5)ccc4c3CCN1C(=O)[C@@H](CC(=O)NCCCOC)C[C@@H]2C(=O)N1CCN(C(=O)c2ccco2)CC1 | inconclusive: 25.9 µM [inhibitor, single point] | 
51 | COc1ccc(-c2cc(NC(C)=O)c3ncc(-c4ccc(F)cc4)n3c2)cc1OC | active: 23.1 µM | 
52 | CC(NC(=O)c1ccccc1)c1nnc(SCC(=O)Nc2nnc(C3CC3)s2)n1C (stereo unspecified) | inactive | 
53 | CCOc1ccc(NS(=O)(=O)c2ccc(C(=O)NCC(c3ccco3)N(C)C)cc2)cc1 (stereo unspecified) | inconclusive: 16.4 µM [inhibitor, partial curve, poor fit] | 
54 | CN1CCN(CCCNC(=O)c2cnn(-c3ccccc3)c2C2CCN(C(=O)OC(C)(C)C)CC2)CC1 | inactive | 
55 | Cc1cc(C(=O)N2CC=C(c3ccccc3)CC2)c2ccccc2n1 | active: 0.58 µM | 
56 | CCC(C)NC(=O)c1ccc2c(c1)N(Cc1ccccc1)C(=O)c1ccccc1S2(=O)=O (stereo unspecified) | inconclusive: 29.1 µM [inhibitor, single point] | 
57 | COc1ccc(N2CCN(C(=O)CCc3ccc(S(=O)(=O)NC(C)C)cc3)CC2)cc1 | inconclusive: 29.1 µM [inhibitor, single point] | 
58 | O=C(c1ccc(-n2cncn2)c([N+](=O)[O-])c1)N1CCN(S(=O)(=O)c2c(F)cccc2F)CC1 | inconclusive: 11.6 µM [inhibitor, partial curve] | 
59 | Cc1ccc2nc(-c3ccccn3)c(Nc3ccc(F)cc3)n2c1 | active: 2.06 µM | 
60 | COc1ccc(C(NC(=O)CC(C)C)c2c(O)ccc3ccccc23)cc1 (stereo unspecified) | inconclusive: 29.1 µM [inhibitor, single point] | 
61 | COc1cc2c(cc1OC)C(C(=O)Nc1ccccc1N1CCN(C)CC1)C1c3ccccc3CCN1C2=O (stereo unspecified) | inconclusive: 29.1 µM [inhibitor, single point] | 
62 | Cc1cccc(-c2n[nH]c(=S)n2/N=C/C=C/c2ccco2)c1 | inactive | 
63 | Cc1c(C)c2c(OCC(=O)NCC(O)c3ccccc3)cc3c(c2oc1=O)CCC(C)(C)O3 (stereo unspecified) | inconclusive: 25.9 µM [inhibitor, single point] | 
64 | CC1=C(C(=O)Nc2ccc(Cl)cc2)C(C(C)C)n2nc(SCc3cccc(C)c3)nc2N1 (stereo unspecified) | inconclusive: 18.4 µM [inhibitor, single point] | 
65 | CCOC(=O)C1=C(C)N(CCO)C(=O)NC1c1ccccc1 (stereo unspecified) | inconclusive: 29.1 µM [inhibitor, single point] | 
66 | CC(C)n1c(N2CCN(CC(=O)Nc3ccc4c(c3)OCCO4)CC2)nc2ccccc21 | inconclusive: 18.4 µM [inhibitor, single point] | 
